Measured values reported in the supplement of paper PMC4967469.
A lower IC50 marks a more sensitive line; a fit beyond the top or the lowest dose is shown as a bound at that dose. AUC sums up the same curve from the lowest dose to the 256-fold higher top dose; the more sensitive the line, the further below 1. For part of these data: Any top dose called inferred comes from the curve model; the source does not state it.

Key:
Test in all cases: Viability of human cancer cell lines after 72 h of drug (GDSC screen)
PF-4708671 = compound: CCc1cncnc1N1CCN(Cc2nc3ccc(C(F)(F)F)cc3[nH]2)CC1 [PF-4708671]; conditions: top dose 10 µM; top dose inferred
Protocol: (§1)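 Human cancer cell lines in 384-well plates, medium with 10% serum, drug for 72 h over a 256-fold dose range (nine 2-fold or five 4-fold steps up to the top dose). Adherent lines were fixed and stained with the nucleic acid dye Syto60, suspension lines read with resazurin; signal relative to control wells, capped at 0 and 100%. One two-parameter sigmoid per drug and line, fitted in a mixed model over all curves with the slope shared within a line.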

AV-951 = compound: COc1cc2nccc(Oc3ccc(NC(=O)Nc4cc(C)on4)c(Cl)c3)c2cc1OC [AV-951]; conditions: top dose 0.128 µM; top dose inferred
Protocol: as §1

KIN001-244 = compound: O=C(NC(COc1ccc2[nH]c(=O)[nH]c2c1)c1ccccc1)c1cccn(Cc2ccc(F)c(F)c2)c1=O [KIN001-244]; conditions: top dose 20 µM; top dose inferred
Protocol: as §1

Trametinib = compound: CC(=O)Nc1cccc(-n2c(=O)n(C3CC3)c(=O)c3c(Nc4ccc(I)cc4F)n(C)c(=O)c(C)c32)c1 [Trametinib]; conditions: top dose 1 µM
Protocol: as §1

I-BET-762 = compound: CCNC(=O)C[C@@H]1N=C(c2ccc(Cl)cc2)c2cc(OC)ccc2-n2c(C)nnc21 [I-BET-762]; conditions: top dose 20 µM; top dose inferred
Protocol: as §1

HG-6-64-1 = compound: CCN1CCN(Cc2ccc(NC(=O)c3ccc(C)c(/C=C/c4cnc5[nH]ccc5c4OC)c3)cc2C(F)(F)F)CC1 [HG-6-64-1]; conditions: top dose 5.12 µM; top dose inferred
Protocol: as §1

Row | Cell Line | AUC (PF-4708671) | IC50 (PF-4708671) [µM] | AUC (AV-951) | IC50 (AV-951) [µM] | AUC (KIN001-244) | IC50 (KIN001-244) [µM] | AUC (Trametinib) | IC50 (Trametinib) [µM] | AUC (I-BET-762) | IC50 (I-BET-762) [µM] | AUC (HG-6-64-1) | IC50 (HG-6-64-1) [µM]
1 | Hep 3B2_1-7 (liver, adherent) | 0.941 | > 10 | 0.987 | > 0.128 | 0.91 | > 20 | 0.264 | 0.0132 | 0.934 | > 20 | 0.305 | 0.0908
2 | Hs633T (fibrosarcoma, adherent) | 0.944 | > 10 | 0.991 | > 0.128 | 0.845 | 10.7 | 0.105 | 0.00474 | 0.903 | 17.8 | 0.56 | 0.452
3 | Hs683 (glioma, adherent) | 0.978 | > 10 | 0.978 | > 0.128 | 0.91 | > 20 | 0.875 | > 1 | 0.976 | > 20 | 0.798 | 2.46
4 | Hs746T (stomach, adherent) | 0.968 | > 10 | 0.942 | > 0.128 | 0.84 | > 20 | 0.639 | 0.174 | 0.656 | 3.95 | 0.968 | > 5.12
5 | Hs766T (pancreas, adherent) | 0.975 | > 10 | 0.975 | > 0.128 | 0.962 | > 20 | 0.678 | 0.232 | 0.97 | > 20 | 0.879 | > 5.12
6 | Hs940-T (melanoma, adherent) | 0.946 | > 10 | 0.982 | > 0.128 | 0.983 | > 20 | 0.881 | > 1 | 0.893 | > 20 | 0.624 | 0.758
7 | Hs-578-T (breast, adherent) | 0.975 | > 10 | 0.987 | > 0.128 | 0.973 | > 20 | 0.807 | 0.554 | 0.986 | > 20 | 0.906 | > 5.12
8 | HuH-7 (liver, adherent) | 0.959 | > 10 | 0.987 | > 0.128 | 0.969 | > 20 | 0.458 | 0.0481 | 0.684 | 4.07 | 0.535 | 0.398
9 | HuO9 (osteosarcoma, adherent) | 0.925 | > 10 | 0.844 | 0.107 | 0.914 | > 20 | 0.93 | > 1 | 0.966 | > 20 | 0.636 | 0.797
10 | HuO-3N1 (osteosarcoma, adherent) | 0.947 | > 10 | 0.923 | > 0.128 | 0.926 | > 20 | 0.916 | > 1 | 0.931 | > 20 | 0.905 | > 5.12
11 | HuP-T3 (pancreas, adherent) | 0.953 | > 10 | 0.974 | > 0.128 | 0.88 | > 20 | 0.46 | 0.0475 | 0.85 | > 20 | 0.928 | > 5.12
